Some of the results follow. Cut-off read from the data, not from the text of the source: active = 3.2 or more and inactive = the rest. Only a few entries rise above the background.
B1: PAH_Y166_N167S (peptide)
chain: FADIAYSYRHG
B2: PAFAH1B1_Y28 (peptide)
chain: GYEEAYSVFKK
B3: PABPC4_Y382_Y382F (peptide)
chain: HLTNQFMQRVA
B4: PAK5_Y608 (peptide)
chain: LVGTPYWMAPE
B5: PAH_Y166_I164T_YF (peptide)
chain: FADTAYNFRHG
B6: P3H4_Y181_Q186R_YF (peptide)
chain: ELTAKYLNFFR
B7: PANK2_Y400_N404I_YF (peptide)
chain: SILAVYSKDIF
B8: PANK2_Y400_A398T (peptide)
chain: SILTVYSKDNY
B9: PACS1_Y303_F302L (peptide)
chain: GQDLLYEDEDL
B10: PAH_Y24_Q20L (peptide)
chain: GLETSYIEDNC
B11: PABPC5_Y147_G146A_YF (peptide)
chain: NGSKAYAFVHF
B12: OTOF_Y254_Q255H (peptide)
chain: GRPMDYHVSIT
B13: PAFAH1B1_Y28_F31S_YF (peptide)
chain: GFEEAYSVSKK
B14: PADI3_Y51_I52V (peptide)
chain: PGVDIYVSPNM
B15: P3H4_Y181 (peptide)
chain: ELTAKYLNYYQ
B16: PAH_Y166_F161S_YF (peptide)
chain: SADIAYNFRHG
B17: P3H4_Y181_Q186R (peptide)
chain: ELTAKYLNYYR
B18: PANK2_Y405_N404I (peptide)
chain: YSKDIYKRVTG

Each binder was assayed against SHP2 C-SH2 domain E139D (assay: enrichment score (SH2-bound / input frequency) (ratio); bacterial display of known human phosphotyrosine sites (pTyr-Var adds point mutants) read by sequencing; higher = stronger binding; tyrosines were phosphorylated by kinases first). Details: peptide library: pTyr-Var.
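Note: displayed peptides selected on beads carrying the immobilized SH2 domain, with library peptides lacking any tyrosine serving as negative controls.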

Binder | enrichment score
B1 | inactive: 0.975
B2 | inactive: 0.794
B3 | inactive: 1.29
B4 | inactive: 1.14
B5 | inactive: 1.03
B6 | inactive: 1.08
B7 | inactive: 1.35
B8 | inactive: 1.05
B9 | inactive: 0.703
B10 | inactive: 0.491
B11 | active: 3.24
B12 | inactive: 1.17
B13 | inactive: 0.613
B14 | inactive: 0.928
B15 | inactive: 1.06
B16 | inactive: 0.841
B17 | inactive: 1.23
B18 | inactive: 0.46

The binders below were run against SHP2 C-SH2 domain wild-type in the same assay as above. Details: peptide library: pTyr-Var.

Binder | enrichment score
B1 | inactive: 0.85
B2 | inactive: 0.806
B3 | inactive: 1.06
B4 | inactive: 1.44
B5 | inactive: 0.759
B6 | inactive: 1.38
B7 | inactive: 1.13
B8 | inactive: 0.873
B9 | inactive: 0.73
B10 | inactive: 0.493
B11 | active: 4.58
B12 | inactive: 1.1
B13 | inactive: 0.562
B14 | inactive: 0.918
B15 | inactive: 0.812
B16 | inactive: 0.733
B17 | inactive: 0.968
B18 | inactive: 0.388

These binders were tested against SHP2 N-SH2 domain L43F in the same assay as above. Details: peptide library: pTyr-Var.

Binder | enrichment score
B1 | inactive: 0.819
B2 | inactive: 0.751
B3 | inactive: 1.14
B4 | inactive: 0.939
B5 | inactive: 0.791
B6 | inactive: 1.24
B7 | inactive: 1.46
B8 | inactive: 1.05
B9 | inactive: 0.763
B10 | inactive: 0.637
B11 | active: 3.61
B12 | inactive: 1
B13 | inactive: 0.662
B14 | inactive: 1.11
B15 | inactive: 1.24
B16 | inactive: 0.843
B17 | inactive: 0.986
B18 | inactive: 0.428

The binders below were run against SHP2 N-SH2 domain T42A in the same assay as above. Details: peptide library: pTyr-Var.

Binder | enrichment score
B1 | inactive: 0.732
B2 | inactive: 0.664
B3 | inactive: 1.08
B4 | inactive: 1.08
B5 | inactive: 0.658
B6 | inactive: 1.52
B7 | inactive: 0.902
B8 | inactive: 1
B9 | inactive: 0.576
B10 | inactive: 0.514
B11 | active: 5.91
B12 | inactive: 1.07
B13 | inactive: 0.543
B14 | inactive: 0.855
B15 | inactive: 1.27
B16 | inactive: 0.704
B17 | inactive: 1.14
B18 | inactive: 0.403

Each binder was assayed against SHP2 N-SH2 domain T52S in the same assay as above. Details: peptide library: pTyr-Var.

Binder | enrichment score
B1 | inactive: 1.07
B2 | inactive: 1.04
B3 | inactive: 1.09
B4 | inactive: 1.08
B5 | inactive: 0.777
B6 | inactive: 1.3
B7 | inactive: 1.2
B8 | inactive: 0.774
B9 | inactive: 0.553
B10 | inactive: 0.515
B11 | active: 4.31
B12 | inactive: 0.95
B13 | inactive: 0.531
B14 | inactive: 0.842
B15 | inactive: 1.18
B16 | inactive: 0.879
B17 | inactive: 0.987
B18 | inactive: 0.406

What follows are binders tested against SHP2 N-SH2 domain wild-type in the same assay as above. Details: peptide library: pTyr-Var.

Binder | enrichment score
B1 | inactive: 0.843
B2 | inactive: 1.09
B3 | inactive: 1.1
B4 | inactive: 1.29
B5 | inactive: 0.903
B6 | inactive: 1.04
B7 | inactive: 1.03
B8 | inactive: 0.981
B9 | inactive: 0.917
B10 | inactive: 0.467
B11 | inactive: 1.81
B12 | inactive: 1.01
B13 | inactive: 0.545
B14 | inactive: 1.54
B15 | inactive: 1.19
B16 | inactive: 0.779
B17 | inactive: 1.28
B18 | inactive: 0.455
